# Reference: article PMC4336329 (PLoS ONE, 2015)
# About 2,200 (0.71%) of roughly 310,000 compounds showed an effect of 50% or more. The effect is printed as a negative number. The list shows a part of the results.
# Biological target: human ether-à-go-go-related gene (hERG) potassium channel (human, UniProt Q12809)
# Experiment: primary screen, population patch clamp on CHO cells stably expressing hERG
# Chain of human ether-à-go-go-related gene (hERG) potassium channel (Q12809 whole entry, looked up): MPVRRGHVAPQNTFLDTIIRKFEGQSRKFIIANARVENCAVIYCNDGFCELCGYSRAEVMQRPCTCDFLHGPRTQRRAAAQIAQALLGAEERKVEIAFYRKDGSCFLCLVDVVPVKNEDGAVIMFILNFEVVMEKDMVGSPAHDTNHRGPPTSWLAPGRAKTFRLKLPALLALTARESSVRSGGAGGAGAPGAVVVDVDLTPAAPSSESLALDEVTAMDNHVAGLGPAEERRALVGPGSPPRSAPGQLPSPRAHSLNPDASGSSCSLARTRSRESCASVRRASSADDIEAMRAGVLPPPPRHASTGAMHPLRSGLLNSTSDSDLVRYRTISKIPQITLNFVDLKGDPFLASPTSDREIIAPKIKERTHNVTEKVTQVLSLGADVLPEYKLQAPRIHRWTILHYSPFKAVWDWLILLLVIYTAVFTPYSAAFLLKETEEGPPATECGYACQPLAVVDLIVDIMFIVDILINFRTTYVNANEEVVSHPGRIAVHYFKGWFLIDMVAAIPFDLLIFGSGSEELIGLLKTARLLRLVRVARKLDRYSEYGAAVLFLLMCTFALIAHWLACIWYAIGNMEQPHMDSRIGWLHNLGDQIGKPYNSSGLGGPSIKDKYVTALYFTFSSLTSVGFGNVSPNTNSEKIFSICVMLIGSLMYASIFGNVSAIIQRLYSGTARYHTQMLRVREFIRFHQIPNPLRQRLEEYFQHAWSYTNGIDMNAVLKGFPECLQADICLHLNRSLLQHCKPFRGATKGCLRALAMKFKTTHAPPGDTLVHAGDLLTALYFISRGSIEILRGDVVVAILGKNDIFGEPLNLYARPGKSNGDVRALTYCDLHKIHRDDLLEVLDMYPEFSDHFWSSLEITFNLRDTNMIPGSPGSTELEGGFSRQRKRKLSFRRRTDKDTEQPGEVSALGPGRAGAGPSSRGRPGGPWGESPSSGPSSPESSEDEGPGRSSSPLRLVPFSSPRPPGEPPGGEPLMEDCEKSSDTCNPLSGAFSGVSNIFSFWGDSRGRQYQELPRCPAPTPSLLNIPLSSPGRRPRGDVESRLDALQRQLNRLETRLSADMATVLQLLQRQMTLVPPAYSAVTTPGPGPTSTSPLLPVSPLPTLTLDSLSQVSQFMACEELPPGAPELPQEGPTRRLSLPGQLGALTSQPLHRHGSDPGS
row,Structure (SMILES),"hERG current change (%, negative = inhibition) at 1uM [%]"
1,c1ccc(OCCN2CCN(Cc3nc(-c4ccc5c(c4)OCO5)no3)CC2)cc1,-10.5
2,CCOc1cc(C#N)c(NC(=O)c2cccnc2)cc1OCC,7.76
3,c1cncc(-c2nc(N3CCOCC3)c3c4c(sc3n2)CCC4)c1,4.13
4,CC1(c2ccccc2Cl)NC(=O)N(CC(=O)NCc2ccco2)C1=O (stereo not shown),7.76
5,CCN(CC)S(=O)(=O)c1ccc(C)c(NC(=O)Cc2ccc(S(=O)(=O)N3CCOCC3)s2)c1,3.53
6,Cc1nc2c(-c3ccc(F)cc3)cnn2c2c1CCC2,4.99
7,Cc1cccc(NN=C2c3ccccc3-c3ccccc32)c1,5.82
8,COc1cc(OC)c(C2=NOC(C(=O)Nc3ccc4c(c3)OCO4)C2)cc1Cl (stereo not shown),3.04
9,Cc1ccc(OCC(=O)N/N=C\c2ccco2)c(C)c1,-1.08
10,Cc1ccc(-c2nc(C)sc2CC(=O)Nc2nnc(C)s2)cc1,7.08
11,O=C(NCCC1CCCCN1S(=O)(=O)c1cccs1)C(=O)Nc1ccc(F)cc1 (stereo not shown),8.29
12,Cc1ccc(N2C(=O)C(NC(=O)c3ccccc3)(C(F)(F)F)C3=C2CC(C)(C)CC3=O)cc1 (stereo not shown),11.7
13,O=C(CSc1nnc2ccc(-c3ccccn3)nn12)NCC1CCCO1 (stereo not shown),8.64
14,CCS(=O)(=O)N1CCC(C(=O)Oc2ccccc2Cl)CC1,14.1
15,O=C(Nc1ccc(Cl)c(Cl)c1)Nn1cnnc1,6.89
16,O=C(COC(=O)Cc1ccsc1)NCC12CC3CC(CC(C3)C1)C2,9.27
17,COc1ccc(Cl)cc1Nc1nnc(-c2ccncc2)s1,4.31
18,C=CCNC(=O)/C(C#N)=C/c1ccc(C)o1,17.2
19,COC(=O)C(O)(c1c(C)[nH]c2ccccc12)C(F)(F)F (stereo not shown),5.55
20,CC(C)(C)c1ccc(C(=O)N2CCC(C(=O)N3CCCCC3)CC2)cc1,7.7
21,CCOC(=O)N1CCN(C(=O)c2cc3sccc3n2C)CC1,8.81
22,COC(=O)CN1C(=O)C(O)=C(C(C)=O)C1c1ccc([N+](=O)[O-])cc1 (stereo not shown),-0.624
23,Cc1c(C(=O)NCCC2=CCCCC2)oc2ccc(S(=O)(=O)N3CCC4(CC3)OCCO4)cc12,10.6
24,COc1ccc(NS(=O)(=O)c2ccc(S(=O)(=O)N3CCCC3)cc2)cc1Cl,-3.44
25,Cc1cc(N2C(=O)C(O)=C(C(=O)c3cc4ccccc4o3)C2c2cccc(Br)c2)no1 (stereo not shown),16.2
